# Results: the supplement of paper PMC7826260
# This is one part of the list. Cleavage of a single-stranded DNA pool by Rep nickase domains was read by sequencing (3 µM enzyme, 1 h, 37 °C); shown is the middle of each 90-letter strand. Uncut reads are compared with the no-enzyme pool on a log2 scale; strong cutting gives strongly negative numbers. There is no active / inactive call. Shares of all reads are compared; values above 0 arise when much of the pool is cut.
# Tests used:
# Experiment in all cases: uncleaved DNA left, log2 of reads against the no-enzyme library (log2 ratio); higher = less cleavage (more negative = more Rep cleavage of the k-mer); sequences stand for … in CTCGTCCG…ACCGGAGA
# [1] = system: T1, Rep nickase domain of Muscovy duck circovirus
# T1 sequence (protein, residues 1-111, tag omitted): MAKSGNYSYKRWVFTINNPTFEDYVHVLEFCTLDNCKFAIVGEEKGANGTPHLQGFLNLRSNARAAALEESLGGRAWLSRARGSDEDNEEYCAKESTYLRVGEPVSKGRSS
# Protocol: (§1)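 A pool of 90-nt single-stranded DNAs with seven random bases just before the constant AC of the nick site (name = the seven bases) was cut by 3 µM recombinant His6-SUMO-tagged Rep nickase domain (300 nM DNA, 50 mM HEPES pH 8.0, 50 mM NaCl, 1 mM MnCl2, 1 h, 37 °C, three replicates). Uncut DNA was amplified and sequenced.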
# [2] = system: T2, Rep nickase domain of banana bunchy top virus
# T2 sequence (protein, residues 1-94, tag omitted): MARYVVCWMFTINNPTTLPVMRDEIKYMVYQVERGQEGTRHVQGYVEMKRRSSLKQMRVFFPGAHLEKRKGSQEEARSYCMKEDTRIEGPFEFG
# Protocol: as §1
# [3] = system: T3, Rep nickase domain of cabbage leaf curl virus
# T3 sequence (protein, residues 1-116, tag omitted): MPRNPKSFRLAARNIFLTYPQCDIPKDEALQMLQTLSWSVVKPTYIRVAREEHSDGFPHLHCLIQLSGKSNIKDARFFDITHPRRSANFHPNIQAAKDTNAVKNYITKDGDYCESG
# Protocol: as §1
# [4] = system: T4, Rep nickase domain of chickpea chlorotic dwarf virus
# T4 sequence (protein, residues 1-124, tag omitted): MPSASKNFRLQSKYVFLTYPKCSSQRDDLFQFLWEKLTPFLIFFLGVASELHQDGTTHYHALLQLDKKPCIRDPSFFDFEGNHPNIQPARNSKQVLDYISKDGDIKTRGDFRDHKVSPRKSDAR
# Protocol: as §1
# [5] = system: T5, Rep nickase domain of faba bean necrotic yellows virus
# T5 sequence (protein, residues 1-98, tag omitted): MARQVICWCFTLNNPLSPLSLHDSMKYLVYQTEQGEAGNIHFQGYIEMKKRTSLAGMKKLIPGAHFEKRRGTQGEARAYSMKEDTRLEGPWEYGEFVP
# Protocol: as §1
# [6] = system: T6, Rep nickase domain of maize striate mosaic virus
# T6 sequence (protein, residues 1-117, tag omitted): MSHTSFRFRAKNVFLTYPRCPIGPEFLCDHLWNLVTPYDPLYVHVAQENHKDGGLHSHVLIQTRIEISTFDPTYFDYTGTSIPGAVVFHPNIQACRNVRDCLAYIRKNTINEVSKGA
# Protocol: as §1
# [7] = system: T7, Rep nickase domain of porcine circovirus 2
# T7 sequence (protein, residues 2-116, tag omitted): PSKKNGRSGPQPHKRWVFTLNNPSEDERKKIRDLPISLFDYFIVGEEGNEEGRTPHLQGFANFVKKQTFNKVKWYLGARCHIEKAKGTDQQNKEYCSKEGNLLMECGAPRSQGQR
# Protocol: as §1
# [8] = system: T8, Rep nickase domain of tomato yellow leaf curl virus
# T8 sequence (protein, residues 1-136, tag omitted): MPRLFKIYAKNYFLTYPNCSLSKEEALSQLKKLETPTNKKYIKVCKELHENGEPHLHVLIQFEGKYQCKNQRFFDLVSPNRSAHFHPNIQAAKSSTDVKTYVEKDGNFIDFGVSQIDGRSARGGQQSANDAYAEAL
# Protocol: as §1
# [9] = system: T9, Rep nickase domain of wheat dwarf virus
# T9 sequence (protein, residues 1-137, tag omitted): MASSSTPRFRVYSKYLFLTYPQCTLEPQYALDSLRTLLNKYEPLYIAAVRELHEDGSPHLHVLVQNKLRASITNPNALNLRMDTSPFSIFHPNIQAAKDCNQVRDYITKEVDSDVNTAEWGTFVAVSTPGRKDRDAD
# Protocol: as §1
Sequence,uncleaved DNA left (log2) [1],uncleaved DNA left (log2) [2],uncleaved DNA left (log2) [3],uncleaved DNA left (log2) [4],uncleaved DNA left (log2) [5],uncleaved DNA left (log2) [6],uncleaved DNA left (log2) [7],uncleaved DNA left (log2) [8],uncleaved DNA left (log2) [9]
ACCTTCC,-0.036,-0.027,-0.156,-0.419,-0.223,-0.843,-0.13,-0.128,-0.115
TCGACTC,0.0935,-0.0651,0.00101,0.684,-0.2,1.23,0.0998,0.0167,0.122
GAAGGCA,0.0612,0.0658,0.421,0.843,-0.0182,0.754,0.102,0.0392,0.00678
AACAAAA,0.0385,-0.0143,-0.0332,-0.542,0.00218,-0.696,0.0232,-0.0818,-0.0394
GAAGTTA,0.133,0.035,0.274,-0.158,0.213,0.833,0.127,0.111,0.0846
AGATGAG,0.0589,0.0092,-0.761,-0.14,0.0621,-1.08,0.13,0.0936,-0.0655
ACGCCGT,-0.0797,-0.194,-0.507,-0.821,-0.2,-1.12,-0.00443,-0.154,-0.27
TGGGGCA,0.0572,0.00996,0.845,1.85,0.0374,2.21,0.168,-0.0294,0.0837
GTCATGG,0.123,0.247,0.342,0.924,0.0504,1.74,0.219,0.197,0.177
CGGGTTC,0.0157,-0.0249,0.426,0.527,0.019,1.23,0.18,0.0587,0.137
CCGTATA,-0.2,-0.114,-0.215,-1.3,-0.13,-0.43,-0.219,-0.0264,-0.201
CGCGCGA,-0.304,-0.344,-0.668,-0.713,-0.106,-0.67,-0.0446,-0.029,-0.301
TACCAGC,0.167,0.0231,-0.203,-0.696,0.0377,-0.911,-0.26,-0.00331,0.0403
TCTTCGG,0.0648,0.00907,0.566,1.48,-0.0152,2.01,0.0837,-0.0165,0.00689
ACTCTCA,-0.078,0.0754,-0.218,-1.13,0.0333,-0.549,0.0119,0.0476,0.0905
GAAATGA,-0.0306,0.00955,0.254,0.439,0.00312,0.37,0.0874,0.0111,-0.0617
ATCATCG,0.0365,0.00541,-0.786,0.198,0.0307,-0.697,0.19,0.0609,-0.142
CACTCGA,-0.00455,0.0753,-0.561,-0.807,0.00381,-0.946,-0.0545,0.0274,-0.111
AGAGCTT,-0.0133,-0.0571,0.281,0.208,-0.0215,1.09,-0.143,-0.0998,-0.0423
TCGGGTC,-0.0361,0.00717,0.411,0.704,0.00267,1.23,-0.024,-0.024,0.0772

Sequence,uncleaved DNA left (log2) [1],uncleaved DNA left (log2) [2],uncleaved DNA left (log2) [3],uncleaved DNA left (log2) [4],uncleaved DNA left (log2) [5],uncleaved DNA left (log2) [6],uncleaved DNA left (log2) [7],uncleaved DNA left (log2) [8],uncleaved DNA left (log2) [9]
GCCCTTT,-0.197,-0.0761,0.00976,-0.738,-0.282,0.24,-0.191,-0.212,-0.0312
CCGGCAA,-0.0945,-0.0541,0.165,0.178,-0.0624,-0.0736,-0.162,-0.048,-0.0556
TCTCCCA,-0.0788,0.0201,0.128,-0.559,0.0302,0.38,-1.25,0.022,-0.00062
AGCCCTT,0.178,0.0299,0.893,1.63,0.0485,2.21,-0.0644,-0.0909,0.192
AGATAAC,0.0307,0.0593,-0.368,-1.23,0.11,-0.279,0.111,0.0307,-0.0134
GCACATG,-0.0712,0.00261,-0.503,-0.0851,-0.14,-0.581,0.0277,-0.0425,0.0105
CCGGTGG,0.0776,-0.00502,0.418,0.625,0.189,0.998,0.198,-0.000417,0.00932
TCGCCGT,-0.0525,-0.212,-0.506,-0.766,-0.292,-0.949,-0.126,-0.123,-0.307
AGCTGAT,0.107,0.0632,0.227,1.3,0.12,1.36,-0.8,0.0284,0.0454
AATTTCG,0.0657,0.0112,-0.911,-0.00646,0.0707,-1.02,0.052,0.155,0.0625
TACCGCC,-0.067,-0.128,-0.224,-1.08,-0.061,-0.947,-0.305,-0.0593,-0.0885
GTTCATT,0.0265,0.0488,0.413,0.917,0.0835,1.79,-0.17,0.0803,0.181
CATCTGT,0.101,0.00516,-0.0265,-0.43,-0.201,-0.377,-0.0359,0.0483,-0.0523
TGTACAG,0.122,0.145,-0.393,-0.867,0.0321,-0.622,0.211,0.169,0.121
AGCGCCT,-0.031,0.0743,-0.0368,0.225,-0.0871,1.44,-0.0461,0.00996,0.0453
AGGGGCG,0.0248,-0.0347,-0.673,-0.0246,-0.0144,-0.539,0.121,-0.007,-0.201
TATTTTG,-0.755,-0.0531,-0.481,-0.556,0.0136,-1.2,-0.0875,0.0482,0.0163
AGACCGG,0.14,0.109,0.363,1.16,0.0887,0.891,0.14,0.0828,0.174
ATGCAGA,0.145,0.145,-0.412,-0.401,0.197,-1.07,0.183,0.00749,0.0497
AGCAAGC,-0.0381,0.0035,0.00661,0.136,0.0964,-0.625,0.0949,0.0173,0.0336

Sequence,uncleaved DNA left (log2) [1],uncleaved DNA left (log2) [2],uncleaved DNA left (log2) [3],uncleaved DNA left (log2) [4],uncleaved DNA left (log2) [5],uncleaved DNA left (log2) [6],uncleaved DNA left (log2) [7],uncleaved DNA left (log2) [8],uncleaved DNA left (log2) [9]
CTACGTG,0.0346,-0.116,-0.72,-1.33,0.0208,-1.27,0.106,0.00208,-0.135
CCGCATT,-0.0521,-0.093,-0.167,-1.28,-0.116,-0.395,-0.613,-0.0543,-0.121
ACAGCTC,0.0301,0.0231,-0.257,-0.453,0.114,-0.612,0.213,0.0545,-0.00635
AAAGATG,0.0664,0.136,0.436,1.54,0.152,1.54,0.25,-0.145,0.0958
CCTACCT,-0.0696,0.0258,-0.484,-2.76,-0.0808,-0.554,-0.978,-0.032,-0.119
AGACAAG,0.15,0.137,-0.315,-0.0882,0.223,-0.762,0.206,0.177,0.178
TGAATCG,-0.0577,-0.089,-0.895,-0.332,0.0115,-1.25,0.164,-0.0141,-0.0799
TGAAATG,0.00754,-0.0765,-0.286,-0.197,-0.0299,-0.615,0.0066,-0.0761,0.026
TCGAATT,0.172,-0.0319,-0.036,-2.05,-0.0281,-0.0804,-2.33,-0.055,0.0131
CGTGGAG,-0.00311,-0.0273,-0.586,-0.267,-0.0718,-0.754,0.177,0.0464,0.0162
TCTAGGT,-0.097,-0.181,0.339,1.12,-0.196,1.56,-0.131,-0.267,-0.178
GCAATAA,0.0279,0.116,0.0339,0.385,0.0346,-0.0706,0.099,0.196,0.0641
CACAACT,-0.19,-0.208,-0.937,-3.28,-0.106,-1.21,-2.33,-0.148,-0.243
AAAAGCG,0.108,0.0783,-0.621,0.815,0.192,-0.345,0.204,0.101,0.0259
GACATAA,0.0371,0.196,0.495,1.21,0.0317,1.42,0.188,0.125,0.196
ATTGTGT,0.0352,-0.147,-0.814,-0.755,0.0737,-1.19,-0.184,0.0293,-0.173
TAGTAGG,0.177,0.0872,0.363,0.88,0.128,0.855,-0.113,-0.00793,0.167
TGATTTT,-3.55,-0.109,-0.31,-2.4,0.0628,-0.244,-3.59,0.122,-0.917
GATTCAT,-0.373,-0.504,0.386,0.901,-0.0444,1.62,-2.63,0.223,0.191
AAGGTGC,0.0646,-0.0217,-0.147,-0.022,0.132,-0.74,0.0703,0.174,0.0167
